This series deals with the molecule itself. Nature of the series: SDS-PAGE without heat denaturation and Western blot. For orientation: In western blotting, separated proteins are transferred to a membrane and probed.

B1: APP695 with C-terminal myc tag followed by the KKAA ER retention motif (natural protein)
chain: not shown
In the case of B1, the “fold increase of dimers with brefeldin A (10–30 μg/ml, 1 h) over vehicle” value was 2 fold.

(Values after PMC3314181 (Cellular and Molecular Life Sciences: CMLS, 2011).)
